The whole screen tested about 390,000 compounds, of which about 760 (0.19%) were called active. Another 3% or so got no clear call; they are omitted. Calls come from the whole dose curve; as a rule, active = well fitted inhibition curve with a large enough effect; inconclusive = small, poorly fitted or top-dose-only effect; inactive = flat fitted curve, though single readings scatter. Only a part is listed here, and it is no random draw.
assay: qHTS for Inhibitors of Vif-A3F Interactions: qHTS; settings: HeLa A3F-eYFP + Vif (tagged APOBEC3F with the HIV-1 protein that degrades it), YFP fluorescence increase; series mostly up to 46.1 µM; activity, negative = active: at the top concentration; note: nearly all actives have a fitted effect of over 65% in size; for activity, negative = active: % of control where 0% means no effect
In short: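 Fluorescence increase (Ex 488/Em 500-530) after overnight compound treatment at 37 deg C flags inhibition of Vif-driven A3F-eYFP loss in stable HeLa A3F-eYFP/Vif cells seeded overnight beforehand.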
Potency is the fitted concentration of half-maximal effect.

Structure (SMILES)	activity, negative = active	Potency
Cc1cc(Br)ccc1SCC(=O)OCC(O)=C(C#N)c1nc2ccccc2[nH]1	inactive: -14.9%	–
COc1cccc(NC(=O)C2CCCN(S(=O)(=O)c3cccc4nonc34)C2)c1 (centres undefined)	inactive: -19.7%	–
CN(CCCNC(=O)c1cc2c(Cl)nc3ccccc3c2s1)Cc1ccccc1	inactive: -15.5%	–
Cc1ccc(C)c(NC(=O)C2CCCN(S(=O)(=O)c3c(C)noc3/C=C/N(C)C)C2)c1 (centres undefined)	inactive: 4.44%	–
CCN1CCN(c2cc(C)c3cc(NC(=O)c4cc(OC)cc(OC)c4)ccc3n2)CC1	inactive: -19.3%	–
CCOC(=O)/C=c1\s/c(=C\c2ccc3cc(OC)ccc3c2)c(=O)n1CC(=O)NCc1ccc2c(c1)OCO2	inactive: -3.27%	–
Cc1ccc(CCNC(=O)CCn2c(=O)c3cccn3c3ccc(F)cc32)cc1	inactive: -8.92%	–
CC(=O)c1cccc(NC(=O)C2CCCN(S(=O)(=O)c3cccc4nonc34)C2)c1 (centres undefined)	–	active: 31.6 µM
CNc1nc(Cl)c(SC)c(N2CCOCC2)n1	inactive: 30.5%	–
O=C(C1=C[C@@H](c2ccc(C(F)(F)F)cc2)C[C@@H](OCc2ccc(CO)cc2)O1)N1CCN(Cc2ccccc2)CC1	inactive: -0.412%	–
CC1CCCN(CCCNC(=O)c2cc3c(Cl)nc4ccccc4c3s2)C1 (centres undefined)	inactive: -16.4%	–
CCCNC(=O)c1ccc2c(c1)nc(C)n2-c1cccc(C)c1	inactive: -3.21%	–
Cc1ccccc1N1C(=O)c2cccc3c(N(C)CCO)ccc(c23)C1=O	–	active: 12.6 µM
CC1=NNC(=O)c2ccccc2O1	inactive: 34.4%	–
CCCCCCN1C[C@@H](O)[C@H](n2cc(COC(=O)c3ccccc3)nn2)C[C@@H]1c1ccc(Cl)cc1	inactive: -12.8%	–
Cc1nc(-c2ccc(Cl)cc2)sc1C(=O)NNC(=O)C(C)C	inactive: 31.7%	–
CCCN(CCC)CCCNC(=O)c1cc2c(-c3ccc(OC)c(OC)c3)nn(C)c2s1	inactive: 2.24%	–
Cc1cc(Br)ccc1SCC(=O)OC/C(O)=C(\C#N)c1nc2ccccc2[nH]1	–	active: 25.1 µM
OCC1OC(n2cnc3c(NCc4ccco4)ncnc32)C(O)C1O (centres undefined)	inactive: 0.349%	–
CCCSc1ccc([C@@H]2[C@@H]3C(=O)N(CC)C(=O)[C@@H]3[C@]3(C(=O)OC)CCCCN23)cc1	inactive: -5.97%	–
CCN1C(=O)[C@H]2[C@@H](c3ccc(-c4ccc(F)cc4)c(OC)c3)N3CCCC[C@@]3(C(=O)OC)[C@H]2C1=O	inactive: -13.8%	–
CCN1CCCC1CNc1ccc(S(C)(=O)=O)cc1[N+](=O)[O-] (centres undefined)	inactive: 19.8%	–
C=CCc1ccccc1OCC(O)CN1CCN(Cc2ccc3c(c2)OCO3)CC1 (centres undefined)	inactive: 6%	–
CC(C)[C@@H](N)C(=O)NCC1CCC(C(=O)N[C@@H](Cc2ccccc2)C(=O)O)CC1 (some centres undefined)	inactive: 9.83%	–
COc1cc(NC(=O)c2cccc3c2C(=O)N(C2CCCCC2)C3)cc(OC)c1OC	inactive: 4.78%	–
COc1ccc(-c2csc(/C(C#N)=C(\O)CSc3nccn3C)n2)cc1OC	inactive: 2.68%	–
CC1=NOC(=O)/C1=C/c1ccc2c(c1)OCO2	inactive: 7.08%	–

Structure (SMILES)	activity, negative = active	Potency
Cc1nnc(N2CCCC(C(=O)Nc3cc(F)ccc3F)C2)c2nn(-c3ccccc3)c(C)c12 (centres undefined)	inactive: -19%	–
CN1c2ccccc2C(C)(C)[C@]12C=Cc1cc(O)ccc1O2	inactive: -10.6%	–
Cc1c(C(=O)N2CCN(c3ccc(F)cc3)CC2)sc2nc3n(c(=O)c12)CCC3	inactive: -0.517%	–
O=C(C[C@H]1C/C=C\CC[C@H](Cc2ccc(F)cc2)C(=O)O[C@@H](c2ccccc2)CNC1=O)N[C@H](CO)Cc1ccccc1	inactive: 5.07%	–
Cc1oc2c(cc(NS(=O)(=O)c3ccc(C(C)C)cc3)c3ccccc32)c1C(=O)O	inactive: 2.06%	–
C=CC[C@@H](CC(=O)N[C@H](CO)Cc1ccccc1)C(=O)N[C@@H](COC(=O)[C@H](CC=C)CC(=O)OC(C)(C)C)Cc1ccccc1	inactive: 3.05%	–
O=C(c1ccccc1)c1ccccc1C(=O)c1ccccc1	inactive: 9.74%	–
COC(=O)Cc1c(O)ccn(CCc2c[nH]c3ccc(OC)cc23)c1=O	inactive: 23.9%	–
Cc1nc2nc(C)c(NS(=O)(=O)c3ccc(CC(C)C)cc3)c(=O)n2[nH]1	inactive: 1.52%	–
Cc1ccc(NC(=O)CSc2nc3ccccc3nc2N2CCOCC2)cc1	inactive: -7.54%	–
CCN1/C(=C/c2ccc3ccccc3[n+]2CC)C=Cc2ccccc21	–	active: 12.6 µM
COc1ccccc1-n1c(-c2ccccc2)c[n+]2c1CCc1ccccc1-2	inactive: 2.01%	–
COc1cccc(C2CC(c3ccccc3)=NN2S(=O)(=O)c2ccc(C)cc2)c1OC (centres undefined)	–	active: 25.1 µM
CC(C)(C)C(=O)Nc1ccc(N=Nc2ccccc2)cc1	inactive: -2.31%	–
O=C(N[C@H]1C/C=C\C[C@H](CC(=O)N(CCO)Cc2ccccc2)C(=O)NC[C@H](c2ccccc2)OC1=O)OCC1c2ccccc2-c2ccccc21	inactive: 1.47%	–
COc1ccc(N/C=C\C(=O)c2ccc(Br)cc2)cc1OC	–	active: 31.6 µM
O[C@@H]1C[C@H](c2ccc(Cl)cc2)N(Cc2cccs2)C[C@H]1n1cc(C2CC2)nn1	inactive: 1.61%	–
CCN1C(=O)[C@H]2[C@@H](c3ccc(SC4CCCCC4)c(OC)c3)N3CCCC[C@@]3(C(=O)OC)[C@H]2C1=O	inactive: -0.118%	–
Cc1cc(/C=C2/SC(=O)NC2=O)c(C)n1-c1ccc(N2CCOCC2)cc1	inactive: -2.11%	–
Cc1ccc2c(c1)N(C)/C(=C/c1cccc[n+]1C)S2	–	active: 11.2 µM
COc1ccc(NC(=O)CSc2nc3c(oc4ccccc43)c(=O)n2Cc2ccco2)cc1Cl	–	active: 8.91 µM
Cc1ccc(N=C2NC(=O)/C(=C\c3cccs3)S2)cc1C	inactive: -14.1%	–
CCc1ccc(NC(=O)CSc2ccc(-c3ccccn3)nn2)cc1	inactive: -2.74%	–
CC(=O)Oc1c(-c2ccc(Br)o2)oc2ccccc2c1=O	–	active: 12.6 µM
CCOC(=O)c1c(-c2ccc(OC)cc2)csc1/N=C/C1C(=O)CCCC1=O	–	active: 25.1 µM
C=CCN1C(=O)c2cccc3c(N4CCCCC4)ccc(c23)C1=O	–	active: 7.08 µM
CCCCCC(=O)N1C[C@@H](n2cc(COC(=O)c3ccccc3)nn2)[C@H](O)C[C@@H]1c1ccc(Cl)cc1	inactive: -1.44%	–

From PubChem BioAssay AID602313 (National Center for Advancing Translational Sciences (NCATS), 2012)
